Measurements reported in US20260285998 (published 2026).

Target: human 4-1BB (human, UniProt Q07011)
Assay: FACS

UniProt Q07011, sequence (Q07011 24-186): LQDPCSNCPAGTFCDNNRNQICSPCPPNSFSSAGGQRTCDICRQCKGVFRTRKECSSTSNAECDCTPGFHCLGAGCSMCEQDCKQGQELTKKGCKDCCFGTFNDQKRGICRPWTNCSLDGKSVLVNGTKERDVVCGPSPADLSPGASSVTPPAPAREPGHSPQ

B1: P1AH1062 4-1BB arm (antibody)
chain: EVQLLESGGGLVQPGGSLRLSCAASGFTFSDYGLSWVRQAPGKGLEWVSLIDSSGSSTFYADSVKGRFTISRDNSKNTLYLQMNSLRAEDTAVYYCAKEHGLFDSWGQGTLVTVSS[in this place human IgG1 constant region]GSGSGSGSGSGSGSGSGSQSVLTQPPSASGTPGRRVTISCSGSSSNIGNNYVTWYQQLPGTAPKLLIYADSHRPSGVPDRFSGSKSGTSASLAISGLRSEDEADYYCATWDYSLSGYVFGCGTKLTVLGGGGSGGGGSGGGGSGGGGSEVQLLESGGGLVQPGGSLRLSCAASGFTFSSYDMSWVRQAPGKCLEWVSWISYSGGSIYYADSVKGRFTISRDNSKNTLYLQMNSLRAEDTAVYYCARDAQRNSMREFDYWGQGTLVTVSS
Work on B1 yielded an EC50 of 1890 pM.

B2: P1AG7400 4-1BBL arm (protein)
chain 1: REGPELSPDDPAGLLDLRQGMFAQLVAQNVLLIDGPLSWYSDPGLAGVSLTGGLSYKEDTKELVVAKAGVYYVFFQLELRRVVAGEGSGSVSLALHLQPLRSAAGAAALALTVDLPPASSEARNSAFGFQGRLLHLSAGQRLGVHLHTEARARHAWQLTQGATVLGLFRVTPEIPAGLGGGGSGGGGREGPELSPDDPAGLLDLRQGMFAQLVAQNVLLIDGPLSWYSDPGLAGVSLTGGLSYKEDTKELVVAKAGVYYVFFQLELRRVVAGEGSGSVSLALHLQPLRSAAGAAALALTVDLPPASSEARNSAFGFQGRLLHLSAGQRLGVHLHTEARARHAWQLTQGATVLGLFRVTPEIPAGLGGGGSGGGGRTVAAPSVFIFPPSDEQLKSGTASVVCLLNNFYPREAKVQWKVDNALQSGNSQESVTEQDSKDSTYSLSSTLTLSKADYEKHKVYACEVTHQGLSSPVTKSFNRGE[in this place human IgG1 Fc with changes]
chain 2: REGPELSPDDPAGLLDLRQGMFAQLVAQNVLLIDGPLSWYSDPGLAGVSLTGGLSYKEDTKELVVAKAGVYYVFFQLELRRVVAGEGSGSVSLALHLQPLRSAAGAAALALTVDLPPASSEARNSAFGFQGRLLHLSAGQRLGVHLHTEARARHAWQLTQGATVLGLFRVTPEIPAGLGGGGSGGGGASTKGPSVFPLAPSSKSTSGGTAALGCLVKDYFPEPVTVSWNSGALTSGVHTFPAVLQSSGLYSLSSVVTVPSSSLGTQTYICNVNHKPSNTKVDKKVEPKSC
B2 gave an EC50 of 510 pM.

B3: P1AG7409 4-1BBL arm (protein)
chain 1: REGPELSPDDPAGLLDLRQGMFAQLVAQNVLLIDGPLSWYSDPGLAGVSLTGGLSYKEDTKELVVAKAGVYYVFFQLELRRVVAGEGSGSVSLALHLQPLRSAAGAAALALTVDLPPASSEARNSAFGFQGRLLHLSAGQRLGVHLHTEARARHAWQLTQGATVLGLFRVTPEIPAGLGGGGSGGGGREGPELSPDDPAGLLDLRQGMFAQLVAQNVLLIDGPLSWYSDPGLAGVSLTGGLSYKEDTKELVVAKAGVYYVFFQLELRRVVAGEGSGSVSLALHLQPLRSAAGAAALALTVDLPPASSEARNSAFGFQGRLLHLSAGQRLGVHLHTEARARHAWQLTQGATVLGLFRVTPEIPAGLGGGGSGGGGRTVAAPSVFIFPPSDEQLKSGTASVVCLLNNFYPREAKVQWKVDNALQSGNSQESVTEQDSKDSTYSLSSTLTLSKADYEKHKVYACEVTHQGLSSPVTKSFNRGE[in this place human IgG1 Fc with changes]
chain 2: REGPELSPDDPAGLLDLRQGMFAQLVAQNVLLIDGPLSWYSDPGLAGVSLTGGLSYKEDTKELVVAKAGVYYVFFQLELRRVVAGEGSGSVSLALHLQPLRSAAGAAALALTVDLPPASSEARNSAFGFQGRLLHLSAGQRLGVHLHTEARARHAWQLTQGATVLGLFRVTPEIPAGLGGGGSGGGGASTKGPSVFPLAPSSKSTSGGTAALGCLVKDYFPEPVTVSWNSGALTSGVHTFPAVLQSSGLYSLSSVVTVPSSSLGTQTYICNVNHKPSNTKVDKKVEPKSC
B3 gave an EC50 of 450 pM.

B4: P1AG7422 4-1BBL arm (protein)
chain 1: REGPELSPDDPAGLLDLRQGMFAQLVAQNVLLIDGPLSWYSDPGLAGVSLTGGLSYKEDTKELVVAKAGVYYVFFQLELRRVVAGEGSGSVSLALHLQPLRSAAGAAALALTVDLPPASSEARNSAFGFQGRLLHLSAGQRLGVHLHTEARARHAWQLTQGATVLGLFRVTPEIPAGLGGGGSGGGGREGPELSPDDPAGLLDLRQGMFAQLVAQNVLLIDGPLSWYSDPGLAGVSLTGGLSYKEDTKELVVAKAGVYYVFFQLELRRVVAGEGSGSVSLALHLQPLRSAAGAAALALTVDLPPASSEARNSAFGFQGRLLHLSAGQRLGVHLHTEARARHAWQLTQGATVLGLFRVTPEIPAGLGGGGSGGGGRTVAAPSVFIFPPSDEQLKSGTASVVCLLNNFYPREAKVQWKVDNALQSGNSQESVTEQDSKDSTYSLSSTLTLSKADYEKHKVYACEVTHQGLSSPVTKSFNRGE[in this place human IgG1 Fc with changes]
chain 2: REGPELSPDDPAGLLDLRQGMFAQLVAQNVLLIDGPLSWYSDPGLAGVSLTGGLSYKEDTKELVVAKAGVYYVFFQLELRRVVAGEGSGSVSLALHLQPLRSAAGAAALALTVDLPPASSEARNSAFGFQGRLLHLSAGQRLGVHLHTEARARHAWQLTQGATVLGLFRVTPEIPAGLGGGGSGGGGASTKGPSVFPLAPSSKSTSGGTAALGCLVKDYFPEPVTVSWNSGALTSGVHTFPAVLQSSGLYSLSSVVTVPSSSLGTQTYICNVNHKPSNTKVDKKVEPKSC
B4 was tested, and the EC50 was 290 pM.

B5: P1AG7397 4-1BBL arm (protein)
chain 1: REGPELSPDDPAGLLDLRQGMFAQLVAQNVLLIDGPLSWYSDPGLAGVSLTGGLSYKEDTKELVVAKAGVYYVFFQLELRRVVAGEGSGSVSLALHLQPLRSAAGAAALALTVDLPPASSEARNSAFGFQGRLLHLSAGQRLGVHLHTEARARHAWQLTQGATVLGLFRVTPEIPAGLGGGGSGGGGREGPELSPDDPAGLLDLRQGMFAQLVAQNVLLIDGPLSWYSDPGLAGVSLTGGLSYKEDTKELVVAKAGVYYVFFQLELRRVVAGEGSGSVSLALHLQPLRSAAGAAALALTVDLPPASSEARNSAFGFQGRLLHLSAGQRLGVHLHTEARARHAWQLTQGATVLGLFRVTPEIPAGLGGGGSGGGGRTVAAPSVFIFPPSDEQLKSGTASVVCLLNNFYPREAKVQWKVDNALQSGNSQESVTEQDSKDSTYSLSSTLTLSKADYEKHKVYACEVTHQGLSSPVTKSFNRGE[in this place human IgG1 Fc with changes]
chain 2: REGPELSPDDPAGLLDLRQGMFAQLVAQNVLLIDGPLSWYSDPGLAGVSLTGGLSYKEDTKELVVAKAGVYYVFFQLELRRVVAGEGSGSVSLALHLQPLRSAAGAAALALTVDLPPASSEARNSAFGFQGRLLHLSAGQRLGVHLHTEARARHAWQLTQGATVLGLFRVTPEIPAGLGGGGSGGGGASTKGPSVFPLAPSSKSTSGGTAALGCLVKDYFPEPVTVSWNSGALTSGVHTFPAVLQSSGLYSLSSVVTVPSSSLGTQTYICNVNHKPSNTKVDKKVEPKSC
Work on B5 yielded an EC50 of 270 pM.
